To fix the notation:
T1: RBFOX1 RRM RbFoxmut (Fox-RRM*) (Homo sapiens, UniProt Q9NWB1 109-208, R118D;E147R;N151S;E152T)
T1 sequence: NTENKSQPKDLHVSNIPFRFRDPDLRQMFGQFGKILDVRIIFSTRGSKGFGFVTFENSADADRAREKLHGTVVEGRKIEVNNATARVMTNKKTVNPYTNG

B1: ACCACCG (DNA:RNA)
RNA: GGGAGACCGGAAUUCAGAUUGUCCACCACCGUUAAAUCCCGUCGUAGCCACCA
DNA 1: CAATCTGAATTCCGGTCTCCC
DNA 2: TGGTGGCTACGACGGGATT
B2: AGCAUUG (DNA:RNA)
RNA: B1 RNA with C26G, C29U, C30U
DNA 1: CAATCTGAATTCCGGTCTCCC
DNA 2: TGGTGGCTACGACGGGATT
B3: AAUUUUU (DNA:RNA)
RNA: B1 RNA with C26A, C27U, A28U, C29U, C30U, G31U
DNA 1: CAATCTGAATTCCGGTCTCCC
DNA 2: TGGTGGCTACGACGGGATT
B4: AUACCUA (DNA:RNA)
RNA: B1 RNA with C26U, C27A, A28C, C30U, G31A
DNA 1: CAATCTGAATTCCGGTCTCCC
DNA 2: TGGTGGCTACGACGGGATT
B5: AACGAGU (DNA:RNA)
RNA: B1 RNA with C26A, A28G, C29A, C30G, G31U
DNA 1: CAATCTGAATTCCGGTCTCCC
DNA 2: TGGTGGCTACGACGGGATT
B6: GGACGCU (DNA:RNA)
RNA: B1 RNA with A25G, C26G, C27A, A28C, C29G, G31U
DNA 1: CAATCTGAATTCCGGTCTCCC
DNA 2: TGGTGGCTACGACGGGATT
B7: ACGUAGU (DNA:RNA)
RNA: B1 RNA with C27G, A28U, C29A, C30G, G31U
DNA 1: CAATCTGAATTCCGGTCTCCC
DNA 2: TGGTGGCTACGACGGGATT
B8: AAAUGGU (DNA:RNA)
RNA: B1 RNA with C26A, C27A, A28U, C29G, C30G, G31U
DNA 1: CAATCTGAATTCCGGTCTCCC
DNA 2: TGGTGGCTACGACGGGATT
B9: GAAUUUU (DNA:RNA)
RNA: GGGAGACCGGAAUUCAGAUUGUCCGAAUUUUUUAAAUCCCGUCGUAGCCACCA
DNA 1: CAATCTGAATTCCGGTCTCCC
DNA 2: TGGTGGCTACGACGGGATT

Positions count from the first letter of the chain named. This is one part of the list.

In the assay the target is T1, RBFOX1 RRM RbFoxmut (Fox-RRM*). Nature of the assay: EMSA; HiTS-Eq, 1 nM pool, 10 min; buffer printed only for the single-RNA assays: 10 mM Tris pH 7.5, 150 mM NaCl, 3.4 mM EDTA, 0.001% NP-40, 30 C. To be noted: tags: His6 N-terminal (pET28a); label: 5' 32P. The method, boiled down: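 Purified wild-type or mutant RbFox RRM at increasing concentrations was equilibrated with 1 nM of 5′-radiolabelled RNA carrying 7 randomized nucleotides for 10 min in 50 µL. Unbound RNA was separated by 8% native PAGE and sequenced. Relative association constants came from read-count changes of each RNA species compared with the control reaction, normalised to the cognate motif.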
Take B1: the binding signal was 0.129 KA relative to UGCAUGU.
Then B2, with 0.2 KA relative to UGCAUGU.
Then B3, with 0.0959 KA relative to UGCAUGU; and B4, with 0.12 KA relative to UGCAUGU.
Regarding B5, the binding signal is 0.0943 KA relative to UGCAUGU.
The result for B6 reads 0.087 KA relative to UGCAUGU.
Then B7, with 0.15 KA relative to UGCAUGU.
The result for B8 reads 0.103 KA relative to UGCAUGU; that for B9, 0.1 KA relative to UGCAUGU.

(Values after article PMC9911399, “Two distinct binding modes provide the RNA-binding protein RbFox with extraordinary sequence specificity”.)
